Measurements published in patent US20240262922A1 (Merck KGaA, published 2024).

Legend:
[1] = target: T1, recombinant human OX40L protein (R&D Systems, cat. #1054-OX) (human, UniProt P23510 51-183); assay: cell-based or functional assay
T1 sequence: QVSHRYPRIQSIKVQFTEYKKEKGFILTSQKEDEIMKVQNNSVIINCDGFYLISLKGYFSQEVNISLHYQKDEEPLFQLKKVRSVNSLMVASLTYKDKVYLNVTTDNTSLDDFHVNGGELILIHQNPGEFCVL

AVI-GST-His6-hOX40L = target: T2, AVI-GST-His6-hOX40L (human, UniProt P23510 51-183); assay: cell-based or functional assay
T2 sequence: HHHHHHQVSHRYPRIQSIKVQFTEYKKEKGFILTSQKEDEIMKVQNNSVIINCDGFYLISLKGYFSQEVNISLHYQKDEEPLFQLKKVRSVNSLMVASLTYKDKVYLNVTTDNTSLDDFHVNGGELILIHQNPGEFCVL

[2] = target: T1, recombinant human OX40L protein (R&D …); assay: SPR steady state, Biacore T200; OX40L immobilised on CM5, fusion protein in solution
Method: Recombinant OX40L proteins (human OX40L protein, R&D systems, cat. #1054-OX; cynomolgus monkey OX40L, Novoprotein cat. #CP72) were immobilized onto Biacore CM5 sensor chips and anti-OX40L antibodies were bound to this surface at a range of concentrations. The response at steady state was measured with a Biacore T200 instrument (GE Healthcare) and plotted against the concentration of antibody and fit to a 1:1 binding model. The steady state KD was determined as the antibody concentration at a response equal to half the maximal response (Rₘₐₓ).

| Binder | Primary T cell activation assay IC50 [1] [nM] | OX40L neutralization/OX40-HEK Reporter IC50 (AVI-GST-His6-hOX40L) [nM] | Kd [2] [nM] | binding result [2] |
| --- | --- | --- | --- | --- |
| CTLA4_anti OX40L fusion protein 97G07 (Fc fusion, CTLA4 ECD - variant IgG1 hinge-Fc - linker - anti-OX40L Fab; also called CTLA4-Fc-anti-OX40L 97G07) heavy: [sequence of about 120 residues not given]EPKSSDKTHTCPPCPAPPVAGPSVFLFPPKPKDTLMISRTPEVTCVVVDVSHEDPEVKFNWYVDGVEVHNAKTKPREEQYNSTYRVVSVLTVLHQDWLNGKEYKCAVSNKALPSSIEKTISKAKGQPREPQVYTLPPSREEMTKNQVSLTCLVKGFYPSDIAVEWESNGQPENNYKTTPPVLDSDGSFFLYSKLTVDKSRWQQGNVFSCSVMHEALHNHYTQKSLSLSPGAGGGGSGGGGSGGGGSQLQLQESGPGLVKPSETLSLTCTVSGGSISSSSYYWGWIRQPPGKGLEWIGGIGSVDYSGNTYYKPSLKSRVTISVDTSKNQFSLKLSTVTAADTAVYHCARHRGIYFFDYWGQGTLVTVSSASTKGPSVFPLAPSSKSTSGGTAALGCLVKDYFPEPVTVSWNSGALTSGVHTFPAVLQSSGLYSLSSVVTVPSSSLGTQTYICNVNHKPSNTKVDKRVEPKSC light: YYELTQPLSVSVALGQTARIPCGGNNIENKNVHWYQQKPGQAPVLVIYRDSNRPSGIPERFSGSNSGNTATLSINRAQAGDEADYYCQVWDSNTVIFGGGTKVTVLGQPKAAPSVTLFPPSSEELQANKATLVCLISDFYPGAVTVAWKADSSPVKAGVETTTPSKQSNNKYAASSYLSLTPEQWKSHKSYSCQVTHEGSTVEKTVAPTECS | 7.1 | 7.7 | 57.4 | – |
| CTLA4_anti OX40L fusion protein 84E11 (Fc fusion) heavy: [sequence of about 120 residues not given]EPKSSDKTHTCPPCPAPPVAGPSVFLFPPKPKDTLMISRTPEVTCVVVDVSHEDPEVKFNWYVDGVEVHNAKTKPREEQYNSTYRVVSVLTVLHQDWLNGKEYKCAVSNKALPSSIEKTISKAKGQPREPQVYTLPPSREEMTKNQVSLTCLVKGFYPSDIAVEWESNGQPENNYKTTPPVLDSDGSFFLYSKLTVDKSRWQQGNVFSCSVMHEALHNHYTQKSLSLSPGAGGGGSGGGGSGGGGSQLQLQESGPGLVKPSETLSLTCTVSGGSISSGSFYWGWIRQPPGKGLEWIGTIYYSGSTYYNPSLKSRVAISVDTSKNQFYLNLNFVTAADTAVYHCARERSSSWYPFDYWGQGTLVTVSSASTKGPSVFPLAPSSKSTSGGTAALGCLVKDYFPEPVTVSWNSGALTSGVHTFPAVLQSSGLYSLSSVVTVPSSSLGTQTYICNVNHKPSNTKVDKRVEPKSC light: SSELTQDPAVSVALGQTVRITCQGDSLRNYFANWYQQKPGQAPVLVIYGKNNRPSGIPDRFSGSSSGNTASLTITGAQAEDEADYYCNSRDSSGYHVVFGGGTKLTVLGQPKAAPSVTLFPPSSEELQANKATLVCLISDFYPGAVTVAWKADSSPVKAGVETTTPSKQSNNKYAASSYLSLTPEQWKSHKSYSCQVTHEGSTVEKTVAPTECS | 8.1 | 50.2 | – | no binding |
| CTLA4_anti OX40L fusion protein 88B06 (Fc fusion) heavy: [sequence of about 120 residues not given]EPKSSDKTHTCPPCPAPPVAGPSVFLFPPKPKDTLMISRTPEVTCVVVDVSHEDPEVKFNWYVDGVEVHNAKTKPREEQYNSTYRVVSVLTVLHQDWLNGKEYKCAVSNKALPSSIEKTISKAKGQPREPQVYTLPPSREEMTKNQVSLTCLVKGFYPSDIAVEWESNGQPENNYKTTPPVLDSDGSFFLYSKLTVDKSRWQQGNVFSCSVMHEALHNHYTQKSLSLSPGAGGGGSGGGGSGGGGSEVQLLESGGGLVQPGGSLRLSCAASGFTFSNYAMSWVRQAPGKGLEWVSVISGSGDSTYYAESVKGRFTISRDNSKNTLYLQMTSLRAEDTAEYYCAKDRTPVYGLDVWGQGTTVTVSSASTKGPSVFPLAPSSKSTSGGTAALGCLVKDYFPEPVTVSWNSGALTSGVHTFPAVLQSSGLYSLSSVVTVPSSSLGTQTYICNVNHKPSNTKVDKRVEPKSC light: SYELTQPLSVSVALGQTARISCGGNNIGRKNVHWYQQKPGQAPVLVIYGDSNRPSGIPERFSGSNSGNTATLTIGRAQAGDEADYYCQVWDSSTVFGGGTKLTVLGQPKAAPSVTLFPPSSEELQANKATLVCLISDFYPGAVTVAWKADSSPVKAGVETTTPSKQSNNKYAASSYLSLTPEQWKSHKSYSCQVTHEGSTVEKTVAPTECS | – | > 161 | 63.8 | – |
| CTLA4_anti OX40L fusion protein 85F12 (Fc fusion) heavy: [sequence of about 120 residues not given]EPKSSDKTHTCPPCPAPPVAGPSVFLFPPKPKDTLMISRTPEVTCVVVDVSHEDPEVKFNWYVDGVEVHNAKTKPREEQYNSTYRVVSVLTVLHQDWLNGKEYKCAVSNKALPSSIEKTISKAKGQPREPQVYTLPPSREEMTKNQVSLTCLVKGFYPSDIAVEWESNGQPENNYKTTPPVLDSDGSFFLYSKLTVDKSRWQQGNVFSCSVMHEALHNHYTQKSLSLSPGAGGGGSGGGGSGGGGSQVQLQQSGPGLVKPSQTLSLTCAISGDSVSSNSAVWNWIRQSPSRGLEWLGRTDYRSKWNNDYAVSVKSRITINPDTSKNQFSLQLNSVTPEDTAVYYCARGDAGMASFDYWGQGTLVTVSSASTKGPSVFPLAPSSKSTSGGTAALGCLVKDYFPEPVTVSWNSGALTSGVHTFPAVLQSSGLYSLSSVVTVPSSSLGTQTYICNVNHKPSNTKVDKRVEPKSC light: SSELTQPPSVSVSPGQTASITCSGDKLGDKYACWYQQKAGQSPVVVIYQDRKRPSGIPERFSGSNSGNTATLTISGTQAMDEADYYCQTWDRRTAVFGGGTKLTVLGQPKAAPSVTLFPPSSEELQANKATLVCLISDFYPGAVTVAWKADSSPVKAGVETTTPSKQSNNKYAASSYLSLTPEQWKSHKSYSCQVTHEGSTVEKTVAPTECS | – | > 161 | 65.8 | – |
| CTLA4_anti OX40L fusion protein 85F10 (Fc fusion) heavy: [sequence of about 120 residues not given]EPKSSDKTHTCPPCPAPPVAGPSVFLFPPKPKDTLMISRTPEVTCVVVDVSHEDPEVKFNWYVDGVEVHNAKTKPREEQYNSTYRVVSVLTVLHQDWLNGKEYKCAVSNKALPSSIEKTISKAKGQPREPQVYTLPPSREEMTKNQVSLTCLVKGFYPSDIAVEWESNGQPENNYKTTPPVLDSDGSFFLYSKLTVDKSRWQQGNVFSCSVMHEALHNHYTQKSLSLSPGAGGGGSGGGGSGGGGSEVQLLESGAGLLKPSETLSLTCAVYGGSFSDYYWSWIRQPPGKGLEWIGEINHSGSTNYNPSLKSRVTISVDTSKNQFSLKLSSVTAADTAVYYCARKRGANFFDDWGQGTLVTVSSASTKGPSVFPLAPSSKSTSGGTAALGCLVKDYFPEPVTVSWNSGALTSGVHTFPAVLQSSGLYSLSSVVTVPSSSLGTQTYICNVNHKPSNTKVDKRVEPKSC light: SYELTQPLSVSVALGQTARITCGGNNIENKNVHWYQQKPGQAPVLVIKRDSNRPSGIPERLSGSNSGNTATLTISRAQAGDEADYYCQVWDSSTVVFGGGTKLTVLGQPKAAPSVTLFPPSSEELQANKATLVCLISDFYPGAVTVAWKADSSPVKAGVETTTPSKQSNNKYAASSYLSLTPEQWKSHKSYSCQVTHEGSTVEKTVAPTECS | – | 120 | 51.1 | – |
